Some of the results follow. No stated cut-off is given here; in the data, active = 3.2 or more and inactive = the rest. Most of these values are background signal.
Target: SHP2 C-SH2 domain E139D
Assay: enrichment score (SH2-bound / input frequency) (ratio); bacterial display of known human phosphotyrosine sites (pTyr-Var adds point mutants) read by sequencing; higher = stronger binding; tyrosines were phosphorylated by kinases first
Conditions: peptide library: pTyr-Var
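Further: displayed peptides selected on beads carrying the immobilized SH2 domain, with library peptides lacking any tyrosine serving as negative controls.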

Enrichment score, inactive:
LNPDGYKKAYE [CPXM2_Y427_E428K] 0.783
MIHSAYALGGL [CPS1_Y590_R587H] 0.915
NCLRQYVAGRF [CRB1_Y711_E710Q] 0.389
LQPNNCQFCGG [CSF1R_Y969_Y969C] 0.595
LDMSQYFRLFN [CPT2_Y217] 1.09
LENSTYQFIHV [CRB1_Y760_R764H_YF] 0.975
LFQAKYQIRYR [CRLF1_Y272] 1.37
LNPDGYEKAYE [CPXM2_Y427] 0.668
TISPFYRQSLF [CRYAA_Y48_YF] 1.04
RRERDYTNLPS [CSF1R_Y923] 0.262
FAKTQYPDVFA [CRX_Y63_YF] 0.746
EPSLVYMVTKI [CPS1_Y768_D767V] 0.674
FSGKAYADEER [CRIM1_Y826] 0.674
LENSTYQFIRV [CRB1_Y760_YF] 1.31
LNPDGYEKAFE [CPXM2_Y427_YF] 0.704
RRDRDYTNLPS [CSF1R_Y923_E920D] 0.339
LENSTYQFICV [CRB1_Y760_R764C_YF] 0.779
DEWFLYKMRDI [CPS1_Y879_K875E] 0.949
CPASVYTKRCS [CPT2_Y508_R503C] 0.579

Target: SHP2 C-SH2 domain wild-type
Assay: as above
Conditions: peptide library: pTyr-Var

Enrichment score, inactive:
LNPDGYKKAYE [CPXM2_Y427_E428K] 0.588
MIHSAYALGGL [CPS1_Y590_R587H] 0.823
NCLRQYVAGRF [CRB1_Y711_E710Q] 0.35
LQPNNCQFCGG [CSF1R_Y969_Y969C] 0.894
LDMSQYFRLFN [CPT2_Y217] 1.66
LENSTYQFIHV [CRB1_Y760_R764H_YF] 0.77
LFQAKYQIRYR [CRLF1_Y272] 1.28
LNPDGYEKAYE [CPXM2_Y427] 0.701
TISPFYRQSLF [CRYAA_Y48_YF] 0.598
RRERDYTNLPS [CSF1R_Y923] 0.277
FAKTQYPDVFA [CRX_Y63_YF] 0.654
EPSLVYMVTKI [CPS1_Y768_D767V] 0.952
FSGKAYADEER [CRIM1_Y826] 0.615
LENSTYQFIRV [CRB1_Y760_YF] 1.05
LNPDGYEKAFE [CPXM2_Y427_YF] 0.794
RRDRDYTNLPS [CSF1R_Y923_E920D] 0.303
LENSTYQFICV [CRB1_Y760_R764C_YF] 1.05
DEWFLYKMRDI [CPS1_Y879_K875E] 0.956
CPASVYTKRCS [CPT2_Y508_R503C] 0.493

Target: SHP2 N-SH2 domain L43F
Assay: as above
Conditions: peptide library: pTyr-Var

Enrichment score, inactive:
LNPDGYKKAYE [CPXM2_Y427_E428K] 0.395
MIHSAYALGGL [CPS1_Y590_R587H] 0.819
NCLRQYVAGRF [CRB1_Y711_E710Q] 0.507
LQPNNCQFCGG [CSF1R_Y969_Y969C] 1.03
LDMSQYFRLFN [CPT2_Y217] 1.84
LENSTYQFIHV [CRB1_Y760_R764H_YF] 1.22
LFQAKYQIRYR [CRLF1_Y272] 1.13
LNPDGYEKAYE [CPXM2_Y427] 0.577
TISPFYRQSLF [CRYAA_Y48_YF] 0.683
RRERDYTNLPS [CSF1R_Y923] 0.376
FAKTQYPDVFA [CRX_Y63_YF] 0.953
EPSLVYMVTKI [CPS1_Y768_D767V] 0.605
FSGKAYADEER [CRIM1_Y826] 0.664
LENSTYQFIRV [CRB1_Y760_YF] 1.23
LNPDGYEKAFE [CPXM2_Y427_YF] 0.557
RRDRDYTNLPS [CSF1R_Y923_E920D] 0.308
LENSTYQFICV [CRB1_Y760_R764C_YF] 1
DEWFLYKMRDI [CPS1_Y879_K875E] 0.811
CPASVYTKRCS [CPT2_Y508_R503C] 0.638

Target: SHP2 N-SH2 domain T42A
Assay: as above
Conditions: peptide library: pTyr-Var

Enrichment score, inactive:
LNPDGYKKAYE [CPXM2_Y427_E428K] 0.576
MIHSAYALGGL [CPS1_Y590_R587H] 0.882
NCLRQYVAGRF [CRB1_Y711_E710Q] 0.581
LQPNNCQFCGG [CSF1R_Y969_Y969C] 0.828
LDMSQYFRLFN [CPT2_Y217] 1.23
LENSTYQFIHV [CRB1_Y760_R764H_YF] 0.835
LFQAKYQIRYR [CRLF1_Y272] 1.34
LNPDGYEKAYE [CPXM2_Y427] 0.415
TISPFYRQSLF [CRYAA_Y48_YF] 0.62
RRERDYTNLPS [CSF1R_Y923] 0.233
FAKTQYPDVFA [CRX_Y63_YF] 0.69
EPSLVYMVTKI [CPS1_Y768_D767V] 0.536
FSGKAYADEER [CRIM1_Y826] 0.612
LENSTYQFIRV [CRB1_Y760_YF] 1.07
LNPDGYEKAFE [CPXM2_Y427_YF] 0.938
RRDRDYTNLPS [CSF1R_Y923_E920D] 0.366
LENSTYQFICV [CRB1_Y760_R764C_YF] 0.838
DEWFLYKMRDI [CPS1_Y879_K875E] 0.721
CPASVYTKRCS [CPT2_Y508_R503C] 0.517

Target: SHP2 N-SH2 domain T52S
Assay: as above
Conditions: peptide library: pTyr-Var

Enrichment score, inactive:
LNPDGYKKAYE [CPXM2_Y427_E428K] 0.42
MIHSAYALGGL [CPS1_Y590_R587H] 0.829
NCLRQYVAGRF [CRB1_Y711_E710Q] 0.287
LQPNNCQFCGG [CSF1R_Y969_Y969C] 0.753
LDMSQYFRLFN [CPT2_Y217] 1.47
LENSTYQFIHV [CRB1_Y760_R764H_YF] 1.02
LFQAKYQIRYR [CRLF1_Y272] 1.46
LNPDGYEKAYE [CPXM2_Y427] 0.764
TISPFYRQSLF [CRYAA_Y48_YF] 0.542
RRERDYTNLPS [CSF1R_Y923] 0.25
FAKTQYPDVFA [CRX_Y63_YF] 0.694
EPSLVYMVTKI [CPS1_Y768_D767V] 0.827
FSGKAYADEER [CRIM1_Y826] 0.671
LENSTYQFIRV [CRB1_Y760_YF] 1.05
LNPDGYEKAFE [CPXM2_Y427_YF] 0.757
RRDRDYTNLPS [CSF1R_Y923_E920D] 0.376
LENSTYQFICV [CRB1_Y760_R764C_YF] 0.829
DEWFLYKMRDI [CPS1_Y879_K875E] 0.685
CPASVYTKRCS [CPT2_Y508_R503C] 0.525

Target: SHP2 N-SH2 domain wild-type
Assay: as above
Conditions: peptide library: pTyr-Var

Enrichment score, inactive:
LNPDGYKKAYE [CPXM2_Y427_E428K] 0.621
MIHSAYALGGL [CPS1_Y590_R587H] 0.954
NCLRQYVAGRF [CRB1_Y711_E710Q] 0.467
LQPNNCQFCGG [CSF1R_Y969_Y969C] 0.861
LDMSQYFRLFN [CPT2_Y217] 1.34
LENSTYQFIHV [CRB1_Y760_R764H_YF] 1.39
LFQAKYQIRYR [CRLF1_Y272] 1.24
LNPDGYEKAYE [CPXM2_Y427] 0.736
TISPFYRQSLF [CRYAA_Y48_YF] 0.932
RRERDYTNLPS [CSF1R_Y923] 0.236
FAKTQYPDVFA [CRX_Y63_YF] 0.732
EPSLVYMVTKI [CPS1_Y768_D767V] 0.893
FSGKAYADEER [CRIM1_Y826] 0.796
LENSTYQFIRV [CRB1_Y760_YF] 0.872
LNPDGYEKAFE [CPXM2_Y427_YF] 0.734
RRDRDYTNLPS [CSF1R_Y923_E920D] 0.564
LENSTYQFICV [CRB1_Y760_R764C_YF] 1.17
DEWFLYKMRDI [CPS1_Y879_K875E] 0.97
CPASVYTKRCS [CPT2_Y508_R503C] 0.559
